Drawing on paper PMC10632493, this text covers binding for one substance.

Sequences of proteins named here, by UniProt entry; tags and fusion partners are left off.
UniProt O95271: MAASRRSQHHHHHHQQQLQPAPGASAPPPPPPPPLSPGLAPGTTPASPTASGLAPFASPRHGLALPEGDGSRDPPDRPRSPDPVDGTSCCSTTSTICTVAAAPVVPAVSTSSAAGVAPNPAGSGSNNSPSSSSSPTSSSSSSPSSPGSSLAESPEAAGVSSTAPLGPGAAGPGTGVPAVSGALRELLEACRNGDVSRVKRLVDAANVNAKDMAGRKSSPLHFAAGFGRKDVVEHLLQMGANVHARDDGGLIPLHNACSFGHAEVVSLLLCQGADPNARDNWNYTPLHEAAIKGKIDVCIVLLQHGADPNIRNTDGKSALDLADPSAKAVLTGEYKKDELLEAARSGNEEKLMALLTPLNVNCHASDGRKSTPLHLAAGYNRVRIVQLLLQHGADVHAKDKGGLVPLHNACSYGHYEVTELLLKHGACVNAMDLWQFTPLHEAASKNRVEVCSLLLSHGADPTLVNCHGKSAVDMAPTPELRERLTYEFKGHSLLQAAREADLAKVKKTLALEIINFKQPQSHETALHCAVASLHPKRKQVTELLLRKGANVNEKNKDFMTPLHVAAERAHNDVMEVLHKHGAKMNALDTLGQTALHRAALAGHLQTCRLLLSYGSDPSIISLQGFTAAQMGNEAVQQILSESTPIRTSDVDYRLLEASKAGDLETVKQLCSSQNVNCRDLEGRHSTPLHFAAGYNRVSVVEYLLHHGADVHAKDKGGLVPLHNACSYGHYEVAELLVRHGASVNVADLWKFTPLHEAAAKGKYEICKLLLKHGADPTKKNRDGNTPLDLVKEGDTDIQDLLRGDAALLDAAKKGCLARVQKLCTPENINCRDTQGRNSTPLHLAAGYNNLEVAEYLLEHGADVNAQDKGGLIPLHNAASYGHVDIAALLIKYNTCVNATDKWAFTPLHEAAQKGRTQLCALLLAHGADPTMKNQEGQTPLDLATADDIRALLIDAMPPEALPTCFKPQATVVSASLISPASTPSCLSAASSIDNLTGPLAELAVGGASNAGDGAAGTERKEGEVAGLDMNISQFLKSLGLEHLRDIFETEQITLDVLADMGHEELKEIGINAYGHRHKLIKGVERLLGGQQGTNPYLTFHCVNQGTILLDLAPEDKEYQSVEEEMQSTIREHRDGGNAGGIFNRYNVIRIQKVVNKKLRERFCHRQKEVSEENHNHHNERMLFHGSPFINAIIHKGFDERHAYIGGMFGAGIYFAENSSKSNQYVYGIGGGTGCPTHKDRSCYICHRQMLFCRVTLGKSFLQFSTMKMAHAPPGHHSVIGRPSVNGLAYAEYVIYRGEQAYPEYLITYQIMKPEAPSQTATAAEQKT

Results are given in words; binding and its absence hold for the method and conditions named. Binding seen in cells or lysates may run through a third protein. Some binding calls cover weakened binding; strength is not graded here. For part of these data: Sequences can lack the tags named with a protein.

For experiment [1], the target named is T1, UIM of RNF166 fused to GFP (GFPU) (UniProt Q96A37).
T1 sequence: DEEAAFQAALALSLSEN
As to the kind of experiment: co-IP; HEK293T cells transfected with Flag plasmids, with or without TNKSi (10 µM); TNE lysate; anti-Flag beads 2 h at 4 °C; immunoblot for endogenous TNKS1.

The target in experiment [2] is FlagRNF166 UIM deletion (UIMΔ; UΔ) (UniProt Q96A37). Described as above.
Experiment [3] has as its target FlagRNF166 UIM point mutant (A229P/S233Q; U**) (UniProt Q96A37). The description is as above.
Experiment [4] has as its target Flag-epitope-tagged RNF166 (FlagRNF166) (UniProt Q96A37). The experiment is described as above.
For the next experiment, the target named is FlagRNF166 G19A (UniProt Q96A37). Kind of experiment: co-IP; U2OS cells transfected with Flag plasmids; TNE lysate; anti-Flag beads 2 h at 4 °C; immunoblot for endogenous TNKS1.
Experiment [5] concerns the target Flag-epitope-tagged RNF166 (FlagRNF166) (UniProt Q96A37). The description is as above.
The next experiment deals with FlagRNF166 G47A (UniProt Q96A37). Described as above.
Experiment [6] has as its target FlagRNF166 2GA (G19A and G47A) (UniProt Q96A37). Described as above.
The target in experiment [7] is FlagRNF166 RING mutant (C33S/C36S; R**) (UniProt Q96A37). Kind of experiment: co-IP; SuperHeLa cells transfected with Flag plasmids, with or without TNKSi (10 µM); lysate in TNE buffer (10 mM Tris pH 7.8, 1% NP-40, 0.15 M NaCl, 1 mM EDTA); anti-Flag beads 2 h at 4 °C; immunoblot for endogenous TNKS1.
In experiment [8] the target is FlagRNF166 Di19 mutant D2* (C182G) (UniProt Q96A37). The experiment is described as above.
Experiment [9] has as its target FlagRNF166 C2HC mutant (C98G; C*) (UniProt Q96A37). The description is as above.
Experiment [10] has as its target FlagRNF166 UIM deletion (UIMΔ; UΔ) (UniProt Q96A37). The description is as above.
The target of experiment [11] is FlagBAP (bacterial alkaline phosphatase) [phosphatase: P00634]. The experiment is described as above.
The target in experiment [12] is Flag-epitope-tagged RNF166 (FlagRNF166) (UniProt Q96A37). The experiment is described as above.
The target in experiment [13] is FlagRNF166 Di19 mutant D1* (C152R) (UniProt Q96A37). Described as above.

“endogenous tankyrase 1 (TNKS1) (from UniProt O95271 1-1327) (enzyme)”: the binding entry in experiment [1] is “no binding”; in [2], “binds weakly”; in experiment [3] it was “binds weakly”; in experiment [4] it was “binds”; in the experiment with FlagRNF166 G19A it was “binds”; in [5], “binds”. Besides, the binding result is “binds” in the experiment with FlagRNF166 G47A; “binds” in experiment [6]; “binds” in experiment [7]; “no binding” in experiment [8]; “binds” in experiment [9]; “binds” in experiment [10]. The binding entry in [11] is given as “no binding”; in experiment [12], “binds”; in experiment [13], “no binding”.
